From PubChem BioAssay AID720709 (National Center for Advancing Translational Sciences (NCATS), 2013)
The whole screen tested about 360,000 compounds, of which about 520 (0.14%) were called active. The inconclusive results got no clear call from the source; some entries with a clear call stand among them for comparison. Calls follow the shape of the dose curve; as a rule, active = well fitted inhibition curve with a large enough effect; inconclusive = small, poorly fitted or top-dose-only effect; inactive = no such curve, though single readings can be large or run the other way. Potencies of inconclusive entries are left out as doubtful fits.

Molecular target: Rap guanine nucleotide exchange factor 3 (Homo sapiens) (UniProt O95398)
Assay: qHTS for Antagonist of cAMP-regulated guanine nucleotide exchange factor 3 (EPAC1): primary screen; also: nearly all actives have a fitted effect of over 50% in size;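 as to activity change, negative = inhibition: plate controls were vehicle for no effect and positive control for full effect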
Conditions: EPAC1 GEF assay, Rap1b-BODIPY-GDP exchange fluorescence; activity change, negative = inhibition: at 115 µM (top of the series)
Potency is read from the fitted curve at half-maximal effect; tags tell the direction and shape of the fitted curve.

UniProt O95398, sequence (O95398 whole entry, looked up): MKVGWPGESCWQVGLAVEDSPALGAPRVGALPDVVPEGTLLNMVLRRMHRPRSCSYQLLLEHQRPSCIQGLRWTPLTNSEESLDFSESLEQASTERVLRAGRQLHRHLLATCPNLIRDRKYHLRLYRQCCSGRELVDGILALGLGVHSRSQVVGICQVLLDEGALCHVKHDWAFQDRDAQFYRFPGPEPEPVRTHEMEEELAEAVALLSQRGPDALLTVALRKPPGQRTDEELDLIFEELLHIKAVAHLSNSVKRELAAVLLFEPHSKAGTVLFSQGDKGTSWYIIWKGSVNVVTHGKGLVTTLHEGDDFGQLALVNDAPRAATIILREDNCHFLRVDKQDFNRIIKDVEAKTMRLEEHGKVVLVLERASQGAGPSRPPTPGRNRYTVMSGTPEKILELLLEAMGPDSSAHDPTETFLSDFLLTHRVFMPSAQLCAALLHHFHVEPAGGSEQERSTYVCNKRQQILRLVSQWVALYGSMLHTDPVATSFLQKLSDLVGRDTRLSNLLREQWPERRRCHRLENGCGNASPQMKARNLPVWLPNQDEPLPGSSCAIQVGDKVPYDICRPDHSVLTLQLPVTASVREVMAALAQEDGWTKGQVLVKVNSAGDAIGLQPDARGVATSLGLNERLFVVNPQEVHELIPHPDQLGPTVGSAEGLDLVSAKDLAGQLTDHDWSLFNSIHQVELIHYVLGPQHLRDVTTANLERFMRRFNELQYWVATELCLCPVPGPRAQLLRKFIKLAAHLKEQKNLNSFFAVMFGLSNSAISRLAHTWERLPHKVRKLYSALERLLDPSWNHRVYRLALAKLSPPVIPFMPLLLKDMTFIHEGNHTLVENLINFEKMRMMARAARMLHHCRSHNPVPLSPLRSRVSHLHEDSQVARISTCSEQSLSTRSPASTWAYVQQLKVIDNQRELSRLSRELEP

Row | SMILES | Potency | activity change, negative = inhibition
1 | Cc1ccc(S(=O)(=O)NCC(=O)NNC(=O)c2ccccc2Cl)cc1C | inconclusive [inhibitor, partial curve] | –
2 | CCOC(=O)N1C(=O)C[C@](Sc2ccc(C)cc2)(C(=O)OC)[C@H]1c1ccccc1 | inactive | –
3 | CCOc1cccc(/C=N/NC(=O)c2cccnc2)c1O | inconclusive [inhibitor, partial curve, poor fit] | –
4 | COc1ccc(N2CC(NC(=O)N(C)CCC#N)CC2=O)cc1 (centres undefined) | inconclusive [inhibitor, single point] | –
5 | O=C(c1cc([N+](=O)[O-])ccc1Cl)N1CCN(Cc2ccc3c(c2)OCO3)CC1 | inconclusive [inhibitor, full curve, poor fit] | –
6 | CCNc1nc(NCC)nc(N(n2cnnc2)S(=O)(=O)c2ccc(C)cc2)n1 | inconclusive [inhibitor, single point] | –
7 | CCCCC1CCC(C(=O)N(CCOC)c2c(N)n(CC(C)C)c(=O)[nH]c2=O)CC1 (centres undefined) | inconclusive [inhibitor, full curve, poor fit] | –
8 | Cc1ccc2nc(-c3ccccc3)c(Cc3cccc(Cl)c3)n2c1 | inconclusive [inhibitor, full curve, poor fit] | –
9 | CCN(CC)c1ccc(/C=N/NC(=O)CNC(=O)c2ccccn2)cc1 | inactive | –
10 | CC(c1ccccc1)N1C(=O)c2cccnc2C1=O (centres undefined) | inactive | –
11 | O=C(CC[C@H]1O[C@@H](n2cnc3c(NC(=O)c4ccccc4)ncnc32)[C@H](O)[C@@H]1O)NCc1ccc(OC(F)(F)F)cc1 | inconclusive [inhibitor, partial curve, poor fit] | –
12 | O=C(C1=C(O)C(=O)N(CC2CCCO2)C1c1ccccc1Cl)c1ccco1 (centres undefined) | inactive | –
13 | Nc1nc2c(ncn2[C@@H]2O[C@H](CNS(=O)(=O)C3CC3)[C@@H](O)[C@H]2O)c(=O)[nH]1 | inconclusive [inhibitor, full curve, poor fit] | –
14 | O=C(NCc1ccccc1)C1=C[C@@H](c2ccccc2)C[C@@H](OCc2ccc(CO)cc2)O1 | inconclusive [inhibitor, single point] | –
15 | Cn1cccc1/C=C1\SC(=S)N(NC(=O)c2ccccc2Cl)C1=O | inactive | –
16 | CC(=O)N1c2c(ccc3ccccc23)C(C)CC12CCCCC2 (centres undefined) | inconclusive [inhibitor, partial curve] | –
17 | COc1ccc(C(=O)Nc2cccc(C(=O)N/N=C/c3ccc(OC)cc3OC)c2)cc1 | inconclusive [inhibitor, full curve] | –
18 | COc1ccc(CCNC(=O)CCCOc2ccc(C)cc2)cc1OC | inconclusive [inhibitor, partial curve, poor fit] | –
19 | NS(=O)(=O)c1ccc(Nc2nc3ccccc3nc2NS(=O)(=O)c2cccc([N+](=O)[O-])c2)cc1 | inconclusive [inhibitor, single point] | –
20 | CCN1CCN(c2cc(C)c3cc(NC(=O)c4cc(OC)cc(OC)c4)ccc3n2)CC1 | inactive | –
21 | O=C(NC(=S)Nc1ccc(Cl)cc1)c1ccccc1 | inactive | –
22 | COCCCNC(=S)Nc1cc2oc3ccccc3c2cc1OC | inconclusive [inhibitor, single point] | –

Row | SMILES | Potency | activity change, negative = inhibition
23 | CC1=C(C(N)=O)C(c2ccccc2)n2nc(-c3cccc(C)c3)nc2N1 (centres undefined) | inconclusive [inhibitor, single point] | –
24 | N#C/C(=C\c1ccc(O)c(O)c1)S(=O)(=O)c1ccccc1 | inconclusive [inhibitor, full curve] | –
25 | COc1cc(CC(=O)OCC(=O)Nc2ccc(S(=O)(=O)N3CCCC3)cc2)cc(OC)c1OC | inconclusive [inhibitor, partial curve, poor fit] | –
26 | NS(=O)(=O)c1ccc(CCNC(=O)CNC(=O)Cc2ccccc2)cc1 | inconclusive [inhibitor, partial curve] | –
27 | O=C(NCc1ccccn1)c1ccc(S(=O)(=O)Nc2ccccc2F)cc1 | inconclusive [inhibitor, partial curve, poor fit] | –
28 | OCCCCNc1cccc2ccccc12 | inactive | –
29 | C/C(=N\NC(=O)C1CC1)c1cccs1 | inconclusive [inhibitor, single point] | –
30 | N=C1C(c2nc3ccccc3s2)=C(O)CN1NC(=O)c1ccccc1[N+](=O)[O-] | inconclusive [inhibitor, partial curve] | –
31 | O=C(OCc1ccc(Cl)c(Cl)c1)c1cccnc1Cl | – | inconclusive: -10.3% [inhibitor]
32 | COc1ccccc1C(=O)N1N=C(c2ccc(NS(C)(=O)=O)cc2)CC1c1cccs1 (centres undefined) | inconclusive [inhibitor, full curve, poor fit] | –
33 | Cc1ccccc1NC(=O)Nc1ccc2c(c1)OCO2 | inactive | –
34 | O=C(NCCc1ccccc1)c1ccc2nc(-c3ccco3)c(-c3ccco3)nc2c1 | inconclusive [inhibitor, partial curve] | –
35 | O=C(NNC(=S)NC(=O)c1ccco1)c1ccc(NC(=O)c2ccccc2)cc1 | inconclusive [inhibitor, full curve, poor fit] | –
36 | Cc1c([N+](=O)[O-])cnc(Sc2ccccc2)c1[N+](=O)[O-] | inconclusive [inhibitor, single point] | –
37 | Cc1c(Cl)cccc1NC(=O)COC(=O)c1c2c(nc3ccccc13)CCN(Cc1ccccc1)C2 | inconclusive [inhibitor, full curve, poor fit] | –
38 | O=C(CSc1ccc(-c2ccccc2)nn1)N1CCOCC1 | inactive | –
39 | CC(C)CCNS(=O)(=O)c1cc2c3c(c1)CCN3C(=O)CC2 | inconclusive [inhibitor, partial curve] | –
40 | COc1ccc(COC(=O)C2=C(C)NC(=O)NC2c2cccc(OC)c2OC)cc1 (centres undefined) | inconclusive [inhibitor, partial curve] | –
41 | COc1ccc(Oc2cccc(Cl)c2CNC(=O)CC(C)(C)CC(=O)O)cc1 | inconclusive [inhibitor, single point] | –
42 | c1ccc(CCNc2ccccn2)nc1 | inconclusive [inhibitor, partial curve] | –
43 | CC1CCN(S(=O)(=O)c2cc(C(=O)N3CCN(c4ncccn4)CC3)ccc2Br)CC1 | inconclusive [inhibitor, partial curve, poor fit] | –
44 | Oc1ccc(NCc2ccccc2OCc2ccccc2)cc1 | inconclusive [inhibitor, partial curve] | –

Row | SMILES | Potency | activity change, negative = inhibition
45 | c1cn2c(NC3CCCCC3)c(-c3ccc(SC4CCCCC4)cc3)nc2cn1 | inconclusive [inhibitor, partial curve, poor fit] | –
46 | COc1ccc(-c2n[nH]c(C)c2-c2cnn(-c3ccccc3)c2)c(O)c1C | inconclusive [inhibitor, full curve, poor fit] | –
47 | O=c1[nH]n2c(=O)c3c([nH]c2c1N=Nc1cccc(C(F)(F)F)c1)CCCC3 | inconclusive [inhibitor, partial curve] | –
48 | CC(C)c1ccc2c(c1)c(SC(C)(C)C)c(CC(C)(C)C(=O)O)n2Cc1ccc(Cl)cc1 | active: 25.1 µM | –
49 | Cn1c(=O)c2c(nc(Oc3ccc4c(c3)OCO4)n2Cc2ccc(Br)cc2)n(C)c1=O | inconclusive [inhibitor, partial curve, poor fit] | –
50 | CCOP(=O)(OCC)c1nc(-c2ccc(Cl)cc2Cl)oc1N1CCCCC1 | inconclusive [inhibitor, single point] | –
51 | CC(C)CCNC(=O)c1ccc(CSCc2cccc(F)c2)o1 | inconclusive [inhibitor, partial curve, poor fit] | –
52 | Oc1ccccc1C=NNC(=S)Nc1ccc(F)cc1 | inconclusive [inhibitor, full curve, poor fit] | –
53 | COc1ccc(C2=CCCCCC2)cc1OC | inactive | –
54 | Cc1ccc(NC(=O)Cc2c(C(=O)O)n(C)c3ccccc23)cc1F | inconclusive [inhibitor, full curve, poor fit] | –
55 | COc1ccccc1Oc1ncnc2c1oc1ccccc12 | inactive | –
56 | O=C1C(NS(=O)(=O)c2cccs2)=C(N2CCOCC2)C(=O)c2ccccc21 | inactive | –
57 | CCOc1cccc(-c2c(C(=O)N/N=C/c3c(F)cccc3Cl)nnn2-c2nonc2N)c1 | inconclusive [inhibitor, partial curve] | –
58 | Cc1ccccc1SCC(=O)N1CCN(c2ccc(C(F)(F)F)cn2)CC1 | inconclusive [inhibitor, partial curve, poor fit] | –
59 | CC(=O)N(CCC(c1ccco1)C(C)C)Cc1ccc(OC(C)C)cc1 (centres undefined) | inconclusive [inhibitor, partial curve] | –
60 | CCN1C(=O)[C@H]2[C@@H](c3ccc(C)cc3)N3C(=O)N(c4ccc(OC)cc4)C(=O)[C@@]3(Cc3ccccc3)[C@H]2C1=O | inconclusive [inhibitor, single point] | –
61 | CCN(CC)CCCNC(=O)c1cc(Cl)c(NC(=O)C2=C(C)OCCS2)cc1OC | inactive | –
62 | CCOC(=O)C1CCN(c2ncnc3c2nnn3Cc2ccccc2Cl)CC1 | inconclusive [inhibitor, partial curve] | –
63 | S=c1[nH]nc(-c2ccco2)n1-c1ccc(Br)cc1 | inconclusive [inhibitor, single point] | –
64 | C=CCn1c(CNC(=O)c2cccs2)nnc1SCC(=O)c1ccc(Br)cc1 | inconclusive [inhibitor, single point] | –
